# Data taken from PubChem BioAssay AID1030 (National Center for Advancing Translational Sciences (NCATS), 2008).
# In all, about 220,000 compounds went through this assay and about 16,000 (7.3%) were called active. Inconclusive means that the source gave no clear call. Such entries were picked first, then a sample of the others. The call rests on the fitted dose curve; in most records, active means well fitted inhibition curve with a large enough effect (not every such curve was filed as active); inconclusive means small, poorly fitted or top-dose-only effect, or another doubt; inactive means no such curve, though single readings can be large or run the other way. No potency is given beside an inconclusive call; the fits are too rough.
# Target: Aldehyde dehydrogenase 1A1 (Homo sapiens) (UniProt P00352)
# Sequence of UniProt P00352 (P00352 whole entry, looked up): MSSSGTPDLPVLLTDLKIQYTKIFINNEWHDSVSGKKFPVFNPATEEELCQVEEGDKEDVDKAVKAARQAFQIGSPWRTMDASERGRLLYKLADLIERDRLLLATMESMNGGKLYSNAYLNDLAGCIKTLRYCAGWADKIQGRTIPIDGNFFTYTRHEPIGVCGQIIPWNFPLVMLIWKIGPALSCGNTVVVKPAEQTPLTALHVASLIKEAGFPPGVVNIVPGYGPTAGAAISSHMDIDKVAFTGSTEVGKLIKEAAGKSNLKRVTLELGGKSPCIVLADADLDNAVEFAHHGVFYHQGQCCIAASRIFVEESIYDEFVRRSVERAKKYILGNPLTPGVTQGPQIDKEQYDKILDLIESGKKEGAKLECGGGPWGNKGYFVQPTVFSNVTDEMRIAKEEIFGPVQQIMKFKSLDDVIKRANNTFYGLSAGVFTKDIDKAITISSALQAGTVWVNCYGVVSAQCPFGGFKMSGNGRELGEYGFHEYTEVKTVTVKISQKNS
# Experiment: qHTS Assay for Inhibitors of Aldehyde Dehydrogenase 1 (ALDH1A1);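 on activity, negative = inhibition: plate controls were no enzyme wells and a reference inhibitor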
# Details: Purified ALDH1A1, NADH fluorescence, propionaldehyde substrate; series mostly up to 75.3 µM
# Potency means the concentration at half of the fitted maximal effect; tags describe the fitted curve by direction and shape.
SMILES,Potency,"activity, negative = inhibition"
Cn1c(N)c(S(=O)(=O)c2ccc(Br)cc2)c2nc3ccccc3nc21,"inconclusive [inhibitor, partial curve]",
CS(=O)(=O)Nc1cccc(-c2ccc3ncnc(NCc4cccs4)c3c2)c1,inactive,
OC(COc1ccc2c(c1)OCO2)CN1CCN(c2ccc(F)cc2)CC1 (configuration not stated),"inconclusive [inhibitor, single point]",
COc1ccc(-c2cc3nc4c(c(N5CCC6(CC5)OCCO6)n3n2)CCC4)cc1,"inconclusive [inhibitor, single point]",
COc1ccccc1NC(=O)N(Cc1cccs1)Cc1cc2cc3c(cc2[nH]c1=O)OCO3,"inconclusive [inhibitor, single point]",
Cn1cnnc1-c1cccc(NC(=O)c2cc(F)c(F)cc2Cl)c1,inactive,
O=C(CSc1nnc(-c2ccco2)o1)c1ccccc1Cl,"inconclusive [inhibitor, single point]",
CCc1ccccc1NC(=O)CN1C(=O)C2CCCN2c2ncc(Cl)cc21 (configuration not stated),active: 17.8 µM,
O=S(=O)(c1ccccc1)N1C2CCC1CC(O)(c1cccnc1)C2 (configuration not stated),active: 12.6 µM,
COc1ccc(-c2csc(Nc3ccccc3)[n+]2Cc2ccccc2)cc1,"inconclusive [inhibitor, single point]",
O=C(O)CSc1ncnc2sc3c(c12)CCCC3,"inconclusive [inhibitor, partial curve]",
CCN1CCN(C(=O)C(C)N(c2ccc(C)cc2)S(C)(=O)=O)CC1 (configuration not stated),inactive,
CCC(=O)Nc1c(-c2cccs2)c(=O)c2ccccc2n1C,"inconclusive [inhibitor, single point]",
Oc1ccccc1-c1nc(N2CCN(Cc3ccccc3)CC2)c2ccccc2n1,"inconclusive [inhibitor, partial curve]",
CCc1c2c(nc3cccc(SC)c13)COC2,"inconclusive [inhibitor, partial curve]",
COc1ccc(C2C(C(=O)N3CC(C)CC(C)C3)c3ccccc3C(=O)N2C)cc1 (configuration not stated),inactive,
Cc1ccc(S(=O)(=O)N(C(=O)c2ccco2)c2cc3sc(=O)oc3c3ccccc23)cc1,active: 31.6 µM,
COc1cc(NS(=O)(=O)c2ccc(NC(=S)NC(=O)c3cccs3)cc2)nc(OC)n1,"inconclusive [inhibitor, single point]",
O=C(N/C(=C/c1ccco1)C(=O)N1CCCC1)c1cccs1,inactive,
CC(Nc1nc(N2CCCCC2)nc2ccccc12)c1ccccc1 (configuration not stated),"inconclusive [inhibitor, partial curve]",
CCN(CC)S(=O)(=O)c1ccc(Cl)c(NC(=O)c2cc(Cl)ccc2Cl)c1,"inconclusive [inhibitor, full curve]",
NCCC1([N+](=O)[O-])CCNCC1,,inactive: 11.5% [at 13.5 µM]
O=C(COC(=O)c1ccc(O)cc1)Nc1ccccc1-c1ccccc1,"inconclusive [inhibitor, single point]",
CN1C(=O)/C(=C\c2cc(N=Nc3ccccc3)ccc2O)SC1=S,"inconclusive [inhibitor, partial curve]",

SMILES,Potency,"activity, negative = inhibition"
O=C(NCCc1ccco1)c1nn(Cc2ccccc2)c(=O)c2ccccc12,active: 17.8 µM,
CCN1C(=O)CS/C1=C(\C#N)S(=O)(=O)c1ccccc1,inactive,
CCCCn1cnc2c([nH]c3cc(OC)ccc32)c1=O,"inconclusive [inhibitor, single point]",
CCOC(=O)C1C(=O)C=C(c2ccc(NS(C)(=O)=O)cc2)CC1c1ccco1 (configuration not stated),"inconclusive [inhibitor, partial curve]",
Cn1c2c(c(=O)n(C)c1=O)C(C(F)(F)F)(C(F)(F)F)N=C(CCC1CCCCC1)N2,inactive,
Cc1ccccc1C=O,"inconclusive [inhibitor, single point]",
O=C(NC1CCCC1)c1ccc(COCC(F)(F)F)o1,"inconclusive [inhibitor, single point]",
CCCC(C)c1nnc(NC(=O)C(=O)OCC)s1 (configuration not stated),active: 7.94 µM,
O=C(N/N=C/c1cn(-c2ccccc2)nc1-c1cccs1)c1ccccc1F,"inconclusive [inhibitor, single point]",
CCc1cc2cc(OC)ccc2nc1SCC(=O)NNC(=O)c1ccco1,inactive,
C=C1c2ccc(C)cc2NC(=O)N1c1ccccc1,"inconclusive [inhibitor, partial curve]",
COc1ccc(S(=O)(=O)N=Nc2c(O)[nH]c3ccccc23)cc1,active: 25.1 µM,
Cc1c(NC(=O)c2ccc(COc3ccc4ccccc4c3)o2)c(=O)n(-c2ccccc2)n1C,"inconclusive [inhibitor, single point]",
O=[N+]([O-])c1ccc(C2Oc3ccccc3C3CC(c4ccccc4)=NN32)s1 (configuration not stated),"inconclusive [inhibitor, single point]",
COC(=O)c1cc(NC(=O)Cc2ccccc2[N+](=O)[O-])cc(C(=O)OC)c1,inactive,
Clc1ccc2c(c1)N(CCCN1CCCC13CCCCC3)c1ccccc1S2,,inactive: 5.47% [at 13.5 µM]
CCN(CC)CCCNC(=O)CNC(=S)N(CCCN1CCOCC1)Cc1cccs1,inactive,
O=[N+]([O-])c1ccc(O)c(/C=N/NC2=NS(=O)(=O)c3ccccc32)c1,"inconclusive [inhibitor, single point]",
O=C(Nc1cc2c(cc1Cl)OCCCO2)c1ccc(F)cc1,"inconclusive [inhibitor, single point]",
CNC(=O)COC(=O)c1cc(-c2ccccc2)nn1-c1ccccc1,inactive,
O=C(O)CSc1ccc([N+](=O)[O-])cc1[N+](=O)[O-],,inactive: 0.258% [at 13.5 µM]
CCOC(=O)c1c(N)sc(C(=O)OCCOC)c1C,active: 14.1 µM,
O=[N+]([O-])c1ccc(N2CCN(c3ccccc3F)CC2)c(S(=O)(=O)N2CCOCC2)c1,"inconclusive [inhibitor, single point]",
